Measurements published in patent US11478477B2, “Method for treating cancer by combination of FAK/ALK/ROS1 inhibitor and EGFR inhibitor” (ASCENTAGE PHARMA (SUZHOU) CO., LTD., priority 2018, dated 2022).

Experiments:
[1] = system: human NCI-H1975 xenograft tumor model; assay: Example 7: Compound 5 or Ensartinib with AZD9291 in xenograft tumor model; format: in vivo, mouse; settings: Compound 5 50 mg/kg; Ensartinib 20 mg/kg; AZD9291 2 mg/kg; orally, once per day, 21 days
Description: The dosage regimen was as follows:

[2] = system: human EGFR^T790M-mutant NCI-H1975 lung cancer xenograft tumor model; settings: for RTV on Day 15 after administration (mean ± standard error) / T/C on Day 15 after administration (%): Compound 5 100 mg/kg, AZD9291 2 mg/kg, orally, once per day, 15 days
[3] = system: human NCI-H1975 xenograft tumor model; assay: Example 6: Compound 5 or Defactinib with AZD9291 in xenograft tumor model; format: in vivo, mouse; settings: Compound 5 50 mg/kg; Defactinib 50 mg/kg; AZD9291 2 mg/kg; orally, once per day, 22 days
Description: The dosing regimen was as follows:

Row | Compound | T/C on Day 21 after administration (%) [1] | RTV on Day 15 after administration (mean ± standard error) [2] | T/C on Day 15 after administration (%) [2] | Tumor status on Day 15 after administration (regression rate, %) [2] | T/C on Day 22 after administration (%) [3] | RTV on Day 22 after administration (mean ± standard error) [3]
1 | C=CC(=O)Nc1cc(Nc2nccc(-c3cn(C)c4ccccc34)n2)c(OC)cc1N(C)CCN(C)C [AZD9291, osimertinib] | 24.4% | 2.1 ± 0.3 | 12.0% | (17%) | 19.8% | –
2 | Cc1cc(Nc2ncc(Cl)c(Nc3ccccc3S(=O)(=O)C(C)C)n2)c(OC(C)C)cc1C1=CCN(C2CCOCC2)CC1 [Compound 5, 5-chloro-N^2-(2-isopropoxy-5-methyl-4-(1-(tetrahydro-2H-pyran-4-yl)-1,2,3,6-tetrahydropyridin-4-yl)phenyl)-N^4-(2-(isopropylsulfonyl)phenyl)pyrimidine-2,4-diamine] | 80% | 9.6 ± 1.9 | 57.0% | 0% | 70.6% | 9.6 ± 4.0
3 | CNC(=O)c1ccc(Nc2ncc(C(F)(F)F)c(NCc3nccnc3N(C)S(C)(=O)=O)n2)cc1 [Defactinib] | – | – | – | – | 63.2% | 8.6 ± 1.1
4 | C[C@@H]1CN(C(=O)c2ccc(NC(=O)c3cc(O[C@H](C)c4c(Cl)ccc(F)c4Cl)c(N)nn3)cc2)C[C@H](C)N1 [Ensartinib] | 61.3% | – | – | – | – | –
